Some of the results follow. Sequences were assembled here from the parent chain. Values near 0.05 are background.
B1: TEV protease; numbered along this chain (parent)
chain: MGESLFKGPRDYNPISSSICHLTNESDGHTTSLYGIGFGPFIITNKHLFRRNNGTLVVQSLHGVFKVKDTTTLQQHLVDGRDMIIIRMPKDFPPFPQKLKFREPQREERICLVTTNFQTKSMSSMVSDTSCTFPSGDGIFWKHWIQTKDGQCGSPLVSTRDGFIVGIHSASNFTNTNNYFTSVPKNFMELLTNQEAQQWVSGWRLNADSVLWGGHKVFMVKPEEPFQPVKEATQL

Variants of: B1
Test: raw area under fraction-flipped curve 0-4 h after induction (AUC4h, not background-subtracted), DNA-recorder readout of cleavage of the substrate (dimensionless); higher = more cleavage of the substrate by the protease variant
Conditions: temperature: 34 °C; time window: 0-4 h after rhamnose induction
Protocol: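 In vivo DNA recorder in E. coli TOP10(DE3) ΔrhaA at 34 °C. Each TEVp single-site mutant (parent TEVp 0) is paired with a single-site variant of the 7-mer TEVs (canonical ENLYFQ|S). The substrate sits between flexible linkers in a Bxb1-sfGFP-TEVs-SsrA fusion, so cleavage stabilises Bxb1 and speeds flipping of a recombination array, read by NGS. The value is the raw area under the fraction-flipped curve over 0-4 h after rhamnose induction (AUC4h), with ≥20 reads per time point. It is not background-subtracted; inactive controls average about 0.047.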
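Also: Bxb1 expression induced with 0.2% (w/v) L-rhamnose at OD600 near 0.5, cultures sampled hourly, flipped fraction per protease–substrate barcode pair counted by paired-end Illumina sequencing.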

Row | Variant | area with substrate ENLYFQA | area with substrate ENLYFQC | area with substrate ENLYFQF | area with substrate ENLYFQG | area with substrate ENLYFQH | area with substrate ENLYFQI | area with substrate ENLYFQK | area with substrate ENLYFQL | area with substrate ENLYFQM | area with substrate ENLYFQN | area with substrate ENLYFQQ | area with substrate ENLYFQR | area with substrate ENLYFQS | area with substrate ENLYFQT | area with substrate ENLYFQV | area with substrate ENLYFQW | area with substrate ENLYFQY | area with substrate ENLYFQD | area with substrate ENLYFQP | area with substrate ENLYFQE
1 | MGESLFKGPRDYNPISSSICHLTNESDGHTTSLYGIGFGPFYITNKHLFRRNNGTLVVQSLHGVFKVKDTTTLQQHLVDGRDMIIIRMPKDFPPFPQKLKFREPQREERICLVTTNFQTKSMSSMVSDTSCTFPSGDGIFWKHWIQTKDGQCGSPLVSTRDGFIVGIHSASNFTNTNNYFTSVPKNFMELLTNQEAQQWVSGWRLNADSVLWGGHKVFMVKPEEPFQPVKEATQL [I42Y] | 0.0541 | 0.0548 | 0.0475 | 0.0581 | 0.0477 | 0.0256 | 0.0485 | 0.0428 | 0.0487 | 0.0465 | 0.0438 | 0.0451 | 0.0499 | 0.0453 | 0.0446 | 0.0448 | 0.036 | – | – | –
2 | MGESLFKGPRDYNPISSSICHLTNESDGHTTSLYGIGFGPFCITNKHLFRRNNGTLVVQSLHGVFKVKDTTTLQQHLVDGRDMIIIRMPKDFPPFPQKLKFREPQREERICLVTTNFQTKSMSSMVSDTSCTFPSGDGIFWKHWIQTKDGQCGSPLVSTRDGFIVGIHSASNFTNTNNYFTSVPKNFMELLTNQEAQQWVSGWRLNADSVLWGGHKVFMVKPEEPFQPVKEATQL [I42C] | 0.0927 | 0.0947 | – | 0.0857 | 0.0783 | 0.0519 | 0.0555 | 0.0568 | 0.0867 | 0.0669 | – | 0.0511 | 0.0867 | 0.0618 | 0.0611 | 0.0419 | 0.0682 | 0.0647 | 0.048 | –
3 | MGESLFKGPRDYNPISSSICHLTNESDGHTTSLYGIGFGPFIITNPHLFRRNNGTLVVQSLHGVFKVKDTTTLQQHLVDGRDMIIIRMPKDFPPFPQKLKFREPQREERICLVTTNFQTKSMSSMVSDTSCTFPSGDGIFWKHWIQTKDGQCGSPLVSTRDGFIVGIHSASNFTNTNNYFTSVPKNFMELLTNQEAQQWVSGWRLNADSVLWGGHKVFMVKPEEPFQPVKEATQL [K46P] | 0.0406 | – | 0.0576 | – | 0.0154 | 0.0502 | – | 0.0595 | 0.0451 | 0.0645 | – | 0.0536 | 0.0653 | 0.0587 | 0.0501 | 0.0557 | 0.0483 | – | 0.0584 | 0.0646
4 | MGESLFKGPRDYNPISSSICHLTNESDGHTTSLYGIGFGPFIITHKHLFRRNNGTLVVQSLHGVFKVKDTTTLQQHLVDGRDMIIIRMPKDFPPFPQKLKFREPQREERICLVTTNFQTKSMSSMVSDTSCTFPSGDGIFWKHWIQTKDGQCGSPLVSTRDGFIVGIHSASNFTNTNNYFTSVPKNFMELLTNQEAQQWVSGWRLNADSVLWGGHKVFMVKPEEPFQPVKEATQL [N45H] | 0.0503 | 0.0596 | – | 0.0613 | 0.0593 | 0.0536 | 0.0576 | 0.0582 | 0.0541 | 0.0614 | – | 0.064 | 0.0595 | 0.0581 | 0.0454 | 0.0599 | 0.05 | – | 0.0884 | 0.0702
5 | MGESLFKGPRDYNPISSSICHLTNESDGHTTSLYGIGFGPFIITVKHLFRRNNGTLVVQSLHGVFKVKDTTTLQQHLVDGRDMIIIRMPKDFPPFPQKLKFREPQREERICLVTTNFQTKSMSSMVSDTSCTFPSGDGIFWKHWIQTKDGQCGSPLVSTRDGFIVGIHSASNFTNTNNYFTSVPKNFMELLTNQEAQQWVSGWRLNADSVLWGGHKVFMVKPEEPFQPVKEATQL [N45V] | 0.101 | 0.0647 | 0.0329 | 0.0686 | 0.0729 | – | 0.0628 | 0.051 | 0.0746 | 0.0665 | 0.0642 | 0.0621 | 0.0739 | 0.0567 | 0.0626 | 0.0544 | 0.0604 | 0.0626 | 0.0554 | –
6 | MGESLFKGPRDYNPISSSICHLTNESDGHTTSLYGIGFGPFIITIKHLFRRNNGTLVVQSLHGVFKVKDTTTLQQHLVDGRDMIIIRMPKDFPPFPQKLKFREPQREERICLVTTNFQTKSMSSMVSDTSCTFPSGDGIFWKHWIQTKDGQCGSPLVSTRDGFIVGIHSASNFTNTNNYFTSVPKNFMELLTNQEAQQWVSGWRLNADSVLWGGHKVFMVKPEEPFQPVKEATQL [N45I] | 0.0516 | 0.059 | 0.0482 | 0.0553 | 0.0569 | 0.053 | – | 0.0594 | 0.0454 | 0.0537 | 0.051 | 0.0604 | 0.0569 | 0.0572 | – | 0.0546 | 0.0266 | 0.034 | 0.0492 | 0.0585
7 | MGESLFKGPRDYNPISSSICHLTNESDGHTTSLYGIGFGPFIIKNKHLFRRNNGTLVVQSLHGVFKVKDTTTLQQHLVDGRDMIIIRMPKDFPPFPQKLKFREPQREERICLVTTNFQTKSMSSMVSDTSCTFPSGDGIFWKHWIQTKDGQCGSPLVSTRDGFIVGIHSASNFTNTNNYFTSVPKNFMELLTNQEAQQWVSGWRLNADSVLWGGHKVFMVKPEEPFQPVKEATQL [T44K] | 0.0588 | 0.0392 | – | 0.0481 | – | – | – | – | 0.0383 | 0.0458 | – | – | 0.0467 | 0.0476 | – | 0.0235 | 0.0413 | 0.0523 | 0.0593 | –
8 | MGESLFKGPRDYNPISSSICHLTNESDGHTTSLYGIGFGPFIIDNKHLFRRNNGTLVVQSLHGVFKVKDTTTLQQHLVDGRDMIIIRMPKDFPPFPQKLKFREPQREERICLVTTNFQTKSMSSMVSDTSCTFPSGDGIFWKHWIQTKDGQCGSPLVSTRDGFIVGIHSASNFTNTNNYFTSVPKNFMELLTNQEAQQWVSGWRLNADSVLWGGHKVFMVKPEEPFQPVKEATQL [T44D] | 0.0391 | 0.0455 | – | 0.0289 | 0.0342 | 0.0494 | 0.0381 | 0.0479 | 0.0503 | 0.0391 | 0.0409 | 0.0405 | 0.0439 | 0.0513 | 0.0284 | 0.0395 | – | 0.0341 | 0.0319 | 0.0446
9 | MGESLFKGPRDYNPISSSICHLTNESDGHTTSLYGIGFWPFIITNKHLFRRNNGTLVVQSLHGVFKVKDTTTLQQHLVDGRDMIIIRMPKDFPPFPQKLKFREPQREERICLVTTNFQTKSMSSMVSDTSCTFPSGDGIFWKHWIQTKDGQCGSPLVSTRDGFIVGIHSASNFTNTNNYFTSVPKNFMELLTNQEAQQWVSGWRLNADSVLWGGHKVFMVKPEEPFQPVKEATQL [G39W] | 0.0602 | 0.0533 | 0.0331 | 0.0528 | 0.0529 | 0.0517 | 0.0489 | 0.0405 | 0.0323 | 0.0424 | 0.053 | 0.0419 | 0.0478 | 0.0484 | 0.0346 | 0.0512 | 0.0471 | 0.0496 | – | –
